Assay results published in the supplement of paper PMC3334620.
The full ranking holds about 33,000 sequences; the median of “E-score (-0.5 to 0.5)” is about -0.013, and the highest 2% start at about 0.3. The list shows a part of the results.

target: T1, Msn1 (UniProt P22148); test: PBM E-score (8-mer binding enrichment) (E-score (-0.5 to 0.5)); higher = stronger / more preferred TF binding; most listed sequences are background and not binding sites; details: protein concentration: 200 nM; construct: GST-full length
T1 sequence: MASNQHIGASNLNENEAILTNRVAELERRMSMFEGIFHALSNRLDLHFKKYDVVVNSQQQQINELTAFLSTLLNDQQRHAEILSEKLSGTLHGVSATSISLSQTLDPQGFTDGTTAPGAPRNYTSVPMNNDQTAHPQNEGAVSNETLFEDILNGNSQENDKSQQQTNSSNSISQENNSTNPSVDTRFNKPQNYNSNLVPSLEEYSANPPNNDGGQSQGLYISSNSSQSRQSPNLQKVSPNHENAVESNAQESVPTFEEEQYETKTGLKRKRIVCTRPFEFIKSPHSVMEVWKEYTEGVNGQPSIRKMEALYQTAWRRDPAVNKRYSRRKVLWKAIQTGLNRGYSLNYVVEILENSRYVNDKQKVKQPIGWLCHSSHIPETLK
Experimental: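 Universal 'all 10-mer' protein binding microarrays (Agilent AMADID 015681) probed with GST-tagged S. cerevisiae TFs (full-length or DBD) made by in vitro transcription/translation (PURExpress), about 100-200 nM. Bound TF was detected with fluorescent anti-GST. Each ungapped 8-mer (which stands for itself and its reverse complement) is scored by the PBM enrichment score (E-score), a modified Wilcoxon-Mann-Whitney statistic from -0.5 to +0.5, computed with the Universal PBM Analysis Suite. Scale: above 0.35 generally sequence-specific binding.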

Sequence	PBM E-score
AGATAGCA	-0.0695
AGAAGGAA	-0.227
ATTGTTCA	-0.00578
GACTTTAC	0.218
CTAGGCGA	-0.164
CTGTTTGC	0.0999
CTACATGA	-0.0118
CGATTGAA	-0.0462
TAGCGCGA	-0.0744
AGGCCACG	-0.0116
CGATAGTA	-0.0716
AGCCAGAT	-0.117
GGAACTAA	0.119
CTGACGGC	-0.29
AATTACGC	-0.103
ATCACAGA	0.0512
AGGCAAAA	0.163
TATACAAA	0.183
GTCGACAA	0.101
ACAAGTTC	0.264
CCAATGAG	-0.213
AGCTGTCG	-0.172
ACCGAGAG	0.0203
AACGGACC	-0.0938
GCCGCTTA	-0.0427

Sequence	PBM E-score
CCGAAGAG	-0.1
GGGCGTGA	-0.0588
TAATCCAA	0.0107
CCCGAGTA	-0.0377
CCCCAAAC	-0.0578
CCCTCTCA	-0.308
ACTCGAAG	-0.168
ACCCCCAT	-0.388
CCGAACCC	-0.146
CGTGGGAG	-0.261
CTTCCTAA	-0.126
CCGCACTA	-0.0818
CGCTCGCA	0.175
AAAACAGA	0.052
GCCACGAA	-0.0669
ATACTTTC	0.0342
ACTCTGTC	0.0383
CTTGATAA	0.177
GTCAGCAC	-0.0865
CCGAATTA	-0.0486
CACGGTTC	-0.179
AAGCACCC	-0.177
AGAACAGG	-0.179
CATAATCC	-0.147
TTGTTAAA	0.0783

Sequence	PBM E-score
GCGCAGTA	-0.0517
GATCGTCC	0.019
ACTACGTC	4e-05
CTTGCCCC	-0.281
GAATGGGA	-0.158
ATATCTTC	0.0841
ACATCTGC	-0.127
CTGAGGAC	0.249
GGTGTCGA	-0.0245
ACCTACCT	-0.142
ATGACGCC	-0.166
AAATATGA	0.154
ATCGAACG	-0.081
CATGACCA	-0.0643
ATAATCAT	0.262
ACCAGATC	-0.0751
GGCTAGCA	-0.0616
CCCGTGCG	-0.169
AGGGTAAA	0.0917
CCAATCAA	0.0531
AACATATG	0.0946
AACTTAAT	0.154
ACATAGTA	0.0987
CCTTGAGA	0.0039
CTATGCGA	-0.00993

Sequence	PBM E-score
AAGGAAAA	0.0464
CCAGTATC	-0.0896
AGGGCAAT	-0.0482
AAGGCGGC	-0.115
ACAACGCG	0.158
CGATCCTA	-0.0181
AGGGAACC	-0.195
GAGCTCGC	-0.0509
GAGTGTAA	-0.154
GAGTTACC	-0.145
ACGGTTCA	-0.177
AGAGATCT	-0.157
AGGCACAA	-0.0855
GAACCGTC	0.0464
ACGGGCTC	-0.203
CAGAGCTC	-0.169
GCGCGACA	0.217
GCACCAAC	-0.139
CCCCACTA	-0.301
CAGCATAC	-0.143
GCCACTTA	-0.126
ATCTATTG	-0.0619
TACGACTA	0.176
GAGGTGCC	-0.0799
GGGAATGA	0.103

Sequence	PBM E-score
AGACGCGG	0.0366
TAGATGAA	0.00555
CCCGCAAC	0.0262
AAAAACTG	-0.142
GAGGCTAA	0.0456
CGGCAGGA	-0.192
CGGTGGCC	-0.171
ACGCTAGT	0.00346
CAACCTCA	-0.136
CTACTGCC	-0.127
GCCCTTGA	-0.0553
CGGAAGAA	0.0955
TACGAACA	0.235
AAGCTGCA	-0.00873
AAGCCTCT	-0.17
AAGGTGAG	-0.121
CAAATTGA	-0.0102
ACGGGTTG	-0.126
GGTAAGCA	-0.147
ATGGGCGC	-0.167
TCTGTTAA	0.0983
AGCACGCA	-0.135
AAACCCCT	-0.311
ACATGAGA	0.13
ATTAGAAC	0.201

Sequence	PBM E-score
ACTACGCT	-0.0331
TCAGGGCA	-0.175
TGCATCCA	-0.0633
CCGAAGTC	0.107
CTACGCCA	-0.291
GCACACCC	-0.217
GATTGTAA	0.0176
CAACTTAG	0.157
AAACGGAG	0.0722
CTGTTATA	0.0756
AAGCTATT	-0.141
ACGACGAG	-0.0108
CAACGGGC	0.0186
AAATTTAG	0.187
GCCAACGA	-0.0272
AACAAACA	0.133
CCGGAGCG	-0.00231
CCTGCGTC	-0.103
GATGTTCA	-0.0625
GACGGTCC	-0.152
ACAAGTTG	0.103
ATAATCCA	0.00465
ATAGGGAG	-0.371
GGGTACGA	-0.202
ATCTACAT	0.161

Sequence	PBM E-score
CCCACTTC	-0.00598
ATATCCAG	-0.0569
TAAACATA	0.157
CCGGTCGA	0.0772
AAACATAA	-0.163
TACAAGTA	0.0835
GCACCGGC	-0.0347
AGGGCGTA	-0.109
ATCCTACG	-0.179
CGTGCCGA	-0.0647
CGGTAGGA	-0.196
GCCGCCGA	0.064
ATTCACGA	0.0369
AGGGATAA	0.0683
GACCCTGC	-0.142
ATTTGTTG	0.177
AGGCAAAG	0.0212
AATGGAGA	0.0612
ACTAGTCT	-0.0559
CGTAAGTC	0.132
ACCATTCG	-0.0321
ATTGCAAA	0.122
CGGTTAGC	-0.143
CGTTAATA	-0.0173
ATTAAGTA	0.091

Sequence	PBM E-score
GGGACAAC	0.375
GGGAAAAC	-0.204
GCCGGCCC	-0.102
CAAGCTTA	-0.021
GACTGTCC	-0.0339
TATGACAA	0.408
CAATCAGG	-0.0196
CAGCTACA	-0.127
GCCTTGCC	-0.196
GACTAAGC	0.0345
CTTTAAAA	0.134
AATCTGAG	-0.0808
CAATACGA	0.0135
ACGGTCTG	-0.0966
GTGCCCAA	-0.0493
GAGTATAC	0.0339
ACCTCCAA	-0.138
ATGGAAAA	0.141
ACGGGTCA	-0.199
CCTGATCG	-0.163
AAATTGAT	0.153
ATTTGTGA	-0.0129
TCCTGCCA	-0.00769
GAGCTAAA	-0.0435
ATCAATGC	-0.0193

Sequence	PBM E-score
AACATCCA	0.0442
GAAAAGGA	0.108
ATAGCCAG	-0.138
AAACCCAG	-0.0478
ACATCAAC	0.144
CCACCAAG	-0.155
AATAACAC	-0.0777
GACCAAGC	0.0159
AGGCTGAG	-0.114
CCAAAGTA	-0.0844
GAAGTTAA	-0.153
CAAACCAC	-0.0607
ACATCAAT	0.0372
CGCTGTGC	-0.125
CAACATCC	-0.257
CGACAAGC	-0.0394
CCGGGAGC	-0.192
AGGGACCT	-0.0323
ATGATCTG	0.0873
